{
  "source": "the RNAGym collection of RNA variant scans (doi:10.1073/pnas.2313332121)",
  "parents": {"B1": {"name": "TPR 5TU (parent)", "chain": "GGAUCUUCUCGAUCUAACAAAAAAGACAAAUCUGCCACAAAGCUUGAGAGCAUCUUCGGAUGCAGAGGCGGCAGCCUUCGGUGGCGCGAUAGCGCCAACGUUCUCAACUAUGACACGCAAAACGCGUGCUCCGUUGAAUGGAGUUUAUCAUG"}},
  "note": "Variants at the background level are over-represented here.",
  "data": [
    {"variants_of": "B1", "test": "polymerase ribozyme fitness, log enrichment relative to wild type (log ratio); higher = more active; in vitro selection for triplet polymerase activity", "outline": "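Fitness is a logarithmic measure of how a genotype enriched relative to the wild type, with replicate averages weighted by inverse variance. The logarithm uses base 2, and enrichment came from Illumina sequencing of input and output libraries. Those libraries were PCR-built, transcribed mutants of each subunit of a heterodimeric triplet polymerase ribozyme, passed through one triplicate in vitro selection round that included frozen incubation at −7 °C, gel excision of extended constructs and streptavidin-bead capture. Genotypes were kept only if they had ≥10 input reads and ≥1 read per output.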", "values": [
      {"variant": "GGAUCUUCUCGAUCUAACAAUAAAGACAAAUCUGCCACAAAGCUUGAGAGCAUCUUCGGAUGCAGAGGCGGCAGCCUUCGGUGGCGCGAUAGCGCCAACGUUCUCAACUAUGACACGCAAAACGCGUGCUCCGUUGAAUGCAGUUUAUCAUG", "note": "[A21U G141C]", "polymerase ribozyme fitness (log ratio)": 0.187},
      {"variant": "GGAUCUUCUCGAUCUAACAAUAAAGACAAAUCUGCCACAAAGCUUGAGAGCAUCUUCGGAUGCAGAGGCGGCAGCCUUCGGUGGCUCGAUAGUGCCAACGUUCUCAACUAUGACACUCAAAACGCGUGCUCCGUUGCAUGGAGUUUAUCAUG", "note": "[A21U G86U C93U G117U A137C]", "polymerase ribozyme fitness (log ratio)": "≤ -4.2"},
      {"variant": "GGAUCUUCUCGAUCUAACAAUAAAGACAAAUCUGCCACAAAGCUUGAGAGCAUCUUCGGAUGCAGAGGCGGCAGCCUUCGGUCGCGCGAUAGCGUCAACGUUCUCAACUAUGACACGCAAAACGCGUGCUCCGUUGAAUGGAGUUUAUCAUG", "note": "[A21U G83C C95U]", "polymerase ribozyme fitness (log ratio)": -1.58},
      {"variant": "GGAUCUUCUCGAUCUAACAAUAAAGACAAAUCGGCCACAAAGCUUGAGAGCAUCUUCGGAUGCAGAGGCGGAAGCCUUCGGUGGCGCGAUAGCGUCAACGUUCUCAACUAUGACACGCAAAUCGCGUGCUCCGUUGAAUGGAGUUUAUCAUG", "note": "[A21U U33G C72A C95U A122U]", "polymerase ribozyme fitness (log ratio)": "≤ -4.2"},
      {"variant": "GGAUCUUCUCGAUCUAACAAUAAAGACAAAUCUGCCACAAAGCUUGAGAGCAUCUUCGGAUGCAGAGGCGGCAGCCUUCGGUGACGCGAUAGCGCCAACGUUCUCAACUAUGACACGCAAAACGCGUGCUCCGUUGAAUGAAGUUUAUCAUG", "note": "[A21U G84A G141A]", "polymerase ribozyme fitness (log ratio)": 0.99},
      {"variant": "GGAUCUUCUCGAUCUAACAAUAAAGACAAACCUGCCACAAAGCUUGAGAGCAUCUUCGGAUGCAGAGGCGGCAUCCUUCGGUGGCGGGAUAACGCCAACGUUCUAAACUAUGACAAGUAAAACGCGUGCUCCGUGGAAUGAAGUUUAUCAUG", "note": "[A21U U31C G74U C87G G92A C105A C116A C118U U135G G141A]", "polymerase ribozyme fitness (log ratio)": "≤ -4.2"},
      {"variant": "GGAUCUUCUCGAUCUAACAAUAAAGACAAAGCUGCCACAAAGCUUGAGAGCCUCUUCGGAUGCAGAGGCGGCAGCCUUCGGUGGCACGAUAGCGCCAACGUUCUCGACUAUGACACGCAAAACGCGUGCUCCGUUGAAUCGAGUUUAUCAUG", "note": "[A21U U31G A52C G86A A106G G140C]", "polymerase ribozyme fitness (log ratio)": "≤ -4.2"},
      {"variant": "GGAUCUUCUCGAUCUAACAAUAAAGACAAAUCUGCCACAAAGCUUGAGAGCAUCUUCGGAUGCAGAGGCGGCAGCCUUCGGUGGCGCGAUAACGCCAACGUUCUCAACUAUGACAGGCAAAAGGCGUGCUCCGUUGAAUGGAGUUUAUCAUG", "note": "[A21U G92A C116G C123G]", "polymerase ribozyme fitness (log ratio)": "≤ -4.2"},
      {"variant": "GGAUCUUCUCGAUCUAACAAUAAAGACAAAUCUGCCACAAAGCUUGAGAGCAUCUUCGGAUGCAGAGGCCGCAGCCUUCGGUGGCGCGAUAGCGCCAACGUUCUCAACUAUGACACGCAAAACGCGUGCUCCGUUGAAGGGAGUUUAUCAUG", "note": "[A21U G70C U139G]", "polymerase ribozyme fitness (log ratio)": "≤ -4.2"},
      {"variant": "GGAUCUUCUCGAUCUAACAAUAAAGACAAAUCUGCCACAAAGCUUGAGAGCAUCUUCGGAUGCAGAGGCGUCAGCCUUCGGUGGCGCGAUGGCGCCAACGUUCUCAACUAUGACACGCAAAACGCGUGCUCCGUUGAAUGGAGUUUACCAUG", "note": "[A21U G71U A91G U148C]", "polymerase ribozyme fitness (log ratio)": "≤ -4.2"},
      {"variant": "GGAUCUUCUCGAUCUAACAAUAAAGACAAAUCUGCCACAAAGCUUGAGAGCAUCUUCGGAUGCAGAGGCGGCAGCCUUCGGUGUCGCGAUAGCGCCAACGUUCUCAACUAUGACACGCAAAACGCGUGCUCCGUUGAAUGGAGUUUAUCAUG", "note": "[A21U G84U]", "polymerase ribozyme fitness (log ratio)": -1.29},
      {"variant": "GGAUCUUCUCGAUCUAACAAUAAAGACAAAUCUGCCACAAAGCUUGAGAGCAUCUUCGGAUGCAGAGGCGGCAGCCUUCGGUGGCCCGAUAGCGCCUACGUUCUCAACUAUGACACGCAAAAUGCGUGCUCCUUUGAAUGGAGUUUAUCAUG", "note": "[A21U G86C A97U C123U G133U]", "polymerase ribozyme fitness (log ratio)": "≤ -4.2"},
      {"variant": "GGAUCUUCUCGAUCUAACAAUAAAGACAAAGCUGCCACAAAGCUUGAGAGCAUCUUCGGAUGCAGAGGCGGCAGCCUUCGGUGGCGAGAUAGCGCCAACGUACUCAACUAUGACACGCAAAACGCGUGCUCCGUUGAAUGAAGUUUAUCAUG", "note": "[A21U U31G C87A U102A G141A]", "polymerase ribozyme fitness (log ratio)": "≤ -4.2"},
      {"variant": "GGAUCUUCUCGAUCUAACAAUAAAGACAAAUCUGCCACAAAGCUUGAGAGCAUCUUCGGAUGCAGAGGCGGCAGCCUUCGGUUGCGCGAUAGCCCCAAGGUUCUCAACUAUGACACGCAAAACGCGUGCUCCGUUGAAUGGAGUUUAUCAUG", "note": "[A21U G83U G94C C99G]", "polymerase ribozyme fitness (log ratio)": "≤ -4.2"},
      {"variant": "GGAUCUUCUCGAUCUAACAAUAAAGACAAAUCUGCCACAAAGCUUGAGAGCAUCUUCGGAUGCAGAGGCGGCAGCCUUCGGUGGCGCGAUAACGCCAACGUUCUCAACUAUGACUCGCAAAACUCGUGCUCCGUUGAAUGGAGAUUAUCAUG", "note": "[A21U G92A A115U G124U U144A]", "polymerase ribozyme fitness (log ratio)": "≤ -4.2"},
      {"variant": "GGAUCUUCUCGAUCUAACAAUAAAGACAAAUCUGCCACAAAGCUUGAGAGCAUCUUCGGAUGCAGAGGCGACAGCCUUCGGUGGCGCGAUAGCGUCCACGUUCUCAACUAUGACACGCAAAACGCGUGCUCCGUUGAAUGGAGGUUAUCAUG", "note": "[A21U G71A C95U A97C U144G]", "polymerase ribozyme fitness (log ratio)": "≤ -4.2"},
      {"variant": "GGAUCUUCUCGAUCUAACAAUAAAGACAAAUCUGCCACAAAGCUUGAGAGCAUCUUCGGAUGCAGAGGCGGCAGCCUUCGGUGGCGCGAUAACGCCAACGUUCUCAACUAUGACACGCAAAACGCGUGCUCCGAUGAAUGGAGUUUAUCAUG", "note": "[A21U G92A U134A]", "polymerase ribozyme fitness (log ratio)": "≤ -4.2"},
      {"variant": "GGAUCUUCUCGAUCUAACAAUAAAGACAAAUCUGCCACAAAGCUUGAGAGCAUCUUCGGAUGCAGAGGCGGCAGCCUUCAGUGGCGCGAUAGCGCCAACGUUCUCAACUAUGACACGCAAAACGCGUGCUCCGUUGAAUGGAGUUUAUCAUG", "note": "[A21U G80A]", "polymerase ribozyme fitness (log ratio)": -0.249},
      {"variant": "GGAUCUUCUCGAUCUAACAAUAAAGACAAAUCUGCCACAAAGCUUGAGAGCAUCUUCGGAUGCAGAGGCGGCAGCCUUCGGUGGCGCGAUAGCGCCAACGUUCUCAACUAUGACACGCAAAACGCGUGCUCCGUUUAAUGGAGUUUAUCAUG", "note": "[A21U G136U]", "polymerase ribozyme fitness (log ratio)": -2.65}
    ]}
  ]
}
